Measurements reported in publication PMC6451091.
The other results are listed elsewhere or left out. For some of these results: At the low end of the ranking the order means little. For some of these results: Measured with an extract: partners may take part in the binding.

Key:
Conditions in all cases: 20 mM HEPES pH 7.9, 100 mM NaCl, 1 mM DTT, 0.2 mg/mL BSA, 0.02% Triton X-100, 2% milk, 0.4 mg/mL salmon testes DNA; 1 h; temperature not stated; high values mean tight binding; double strand, one strand shown; sequences stand for … in GCCTAGCAC…GTGCTAGGTCTTGATTCGCTTGACGCTGCTG
PU.1 (IVT) = PU.1 (IVT) (UniProt P17947); assay: protein-binding microarray (PBM)
[1] = biological target: PU.1 (endogenous, THP-1 nuclear extract) (UniProt P17947); assay: nuclear extract protein-binding microarray (nextPBM)
[2] = biological target: T1, FLI1 (endogenous, THP-1 nuclear extract) (UniProt Q01543); assay: as above
T1 sequence: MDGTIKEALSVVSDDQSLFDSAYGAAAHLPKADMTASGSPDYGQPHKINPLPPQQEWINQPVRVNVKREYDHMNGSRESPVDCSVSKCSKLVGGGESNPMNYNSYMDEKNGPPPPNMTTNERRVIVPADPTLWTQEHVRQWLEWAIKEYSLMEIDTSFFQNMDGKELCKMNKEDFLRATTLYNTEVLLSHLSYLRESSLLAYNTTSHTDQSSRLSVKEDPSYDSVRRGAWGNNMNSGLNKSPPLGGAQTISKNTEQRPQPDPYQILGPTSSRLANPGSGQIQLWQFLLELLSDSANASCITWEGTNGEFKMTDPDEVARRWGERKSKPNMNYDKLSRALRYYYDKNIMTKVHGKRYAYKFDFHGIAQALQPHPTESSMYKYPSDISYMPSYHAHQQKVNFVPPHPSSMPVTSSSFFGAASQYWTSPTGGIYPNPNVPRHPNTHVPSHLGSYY

[3] = test system: PU.1 (endogenous, THP-1 nuclear extract) + IRF8 (endogenous, THP-1 nuclear extract); assay: as above

Sequence	binding signal (PU.1 (IVT)) [z-score]	binding signal [1] [z-score]	binding signal [2] [z-score]	binding signal [3] [z-score]
GTCAAGACTGCCTGAAACTG	0.0987	-0.304	-0.137	3.06
GAGAGGACTGCGTGAAACTG	-0.208	-0.498	-0.0949	2.57
TCAGTGGGGAAAGAATGATC	0.135	-0.0653	-0.0399	-1.37
GCGTGTGACGCGGGGACGCC	-0.72	-0.12	-0.455	1.16
TCCAGGACTGCCTGAAAGCT	-0.402	-0.12	-0.228	-1.21
TGAAAGAGGAAGTGAAACCA	7.95	7.57	4.79	83.6
GGGGAGACTGCGTGAAAGCA	-0.125	-0.585	-0.81	-0.263
AATTTGACTGCCTGAAAGAA	-0.116	-0.0899	-0.655	-0.675
AAAAAAAAAATCAGCTGATT	-0.116	-0.317	1.13	0.0991
TTTATGGAAATAGCGGTTTT	0.608	0.34	0.813	-0.233
TCAACCTGCAGTTCTGGAGG	-0.572	-0.382	-0.556	-0.236
TCCTGGACAAAAGGGATGTG	1.6	1.07	1.62	0.0349
AAATTTGCTACAAGGAACGT	0.659	0.472	0.134	-0.439
CAGCACCAGGGGCACATTTG	0.034	-0.341	-1.01	0.748
ATGTAGCTATTAGACCTTGC	-0.499	-0.413	0.0856	-0.171
CGTGTTTGCGTCCTTGCACG	-0.742	-0.284	-0.922	-0.977
GATATTTACCATTGTGTTAC	-0.182	-0.36	0.0233	-0.744
CGGGAGGCCGTTTCCAGCTG	-0.836	-0.325	1.01	1.32
CTGACTTTGGGTGACAGGCT	-0.506	-0.228	0.0363	-0.394
ACAGAGTCTTGCTCTGTCGC	-0.609	-0.0685	-0.144	0.853
AAGTTTCATAGAGGTCATGA	-0.659	-0.709	-0.403	2.31
GCCATGCCCATGTCTGGACT	0.00744	-0.174	-0.388	0.512

Sequence	binding signal (PU.1 (IVT)) [z-score]	binding signal [1] [z-score]	binding signal [2] [z-score]	binding signal [3] [z-score]
CTGAGGAAAGTGGCTTGGGT	-0.318	-0.275	0.204	1.44
TTATGAAGGTTAGGGAGAAG	0.34	0.618	-0.627	-0.301
TGAAACAGGAAGTGCAACCA	6.44	6.6	5.12	7.07
GAAGCCCGCCAGGGTTACCA	-0.642	-0.251	-1.4	0.761
AATTGTTATATTTTCTTGGT	0.0158	-0.379	0.217	-0.501
GAAAGCAACTTTCTACCTGA	0.301	-0.111	0.167	0.374
TCTTTTGGACTTCTGACCTC	-0.312	0.0596	-0.541	-1.23
TGGAAAACTGCGTGAAACCA	-0.784	-0.81	0.0119	1.94
TGGGCCCTGGTACTGAAGAC	-0.942	-0.283	-0.775	0.469
CCACTATCTCTGCACTCCTG	-0.545	-0.148	-0.0146	-0.161
AGCGCCACGCCCAGGTGTCC	-0.461	-0.509	-0.453	0.257
ATTACCAATCGGTTCAGATG	-0.483	-0.423	-0.483	0.826
CTTTTTTGCTTGCATGAGGA	-0.0187	-0.554	-0.298	0.484
CTTTATAGTTGGTATAAAAA	-0.239	-0.495	-0.0786	0.0252
GAAGGAGGGAAGAGGCTGGA	-0.023	0.701	0.287	0.0588
CCTGACTTTGTGGATGCTGT	-0.312	-0.299	0.0992	-0.43
AGAGAGACTGCGTGAAAGTA	0.063	-0.345	-0.465	-0.0536
ACGTGGGGGAGTTAAGAGAC	-0.228	-0.172	-0.429	0.44
CTTTCCAAAACGTTTAGTCA	-0.529	-0.545	0.208	-0.977
TACCCTTTAAAAATAGTTCA	0.827	0.806	-0.0116	0.0452
TCTCAAAGCAGCTTGAAGCG	-0.977	-0.522	-1.04	-0.667
ACACCCGTTCCTGTGATCTT	-0.318	0.334	-0.198	0.0844

Sequence	binding signal (PU.1 (IVT)) [z-score]	binding signal [1] [z-score]	binding signal [2] [z-score]	binding signal [3] [z-score]
TAAAAGGTTAATTAGTTCCA	0.152	0.194	-0.105	0.651
ACTGGGCCAAAGGTACCTTC	-0.531	-0.112	-0.726	-0.044
AGACCAGCCTGGCCAACATG	-0.401	-0.187	-0.911	0.41
CATTGGAAAGTGGGTTGGAA	1.04	0.901	0.546	0.783
CGCACCCCGCCTCCCTGGCC	-0.732	0.0605	-0.704	0.873
GTTAAAATTTTTAAAATATG	0.203	-0.931	0.404	-1.56
CTTGAGTGGCGTCTTAACCT	-0.359	-0.211	-0.534	0.628
GTCAAAAAAAGGAAAAAGCC	0.885	0.316	0.857	-1.94
CAATGAAAGCTAACTGATGC	-0.24	-0.00694	-0.528	-0.473
AGTCCTGAGTCAGAGGCAAG	-0.439	-0.326	-0.442	-0.0515
TTGAAATTGTTCATTGTGTA	-0.377	-0.496	-0.481	-1.46
GAAGGGAAAGTTCTACTGCC	-0.378	-0.438	-0.187	-1.95
TGCACCACCCATTGGATCAT	-0.807	-0.428	-0.269	-0.348
CGGGAGCCTTGTGGCGAAAA	-0.807	-0.681	-0.0261	-0.246
CCAGCCTGGCCAAAGTGGTG	-0.775	-0.158	-1.19	0.547
AGAGAGTGGTTAGAGCCAGC	-0.562	-0.332	-0.877	-0.747
CGGATGAGGGAACATTCTGC	0.52	0.559	3.11	-1.6
AAAACATAACAGCCACTAAC	-0.179	-0.287	-0.263	-0.586
CTGACCAGGGTGGAATAACC	0.114	-0.303	-0.367	0.167
CCTCTTGCCTACATTTCTCC	-0.17	-0.126	-0.23	0.0237
TCAACATCTGCGTGAAAGTC	-0.225	-0.451	-1.07	-0.466
ACAAACAAACAAAAGCTCAC	-0.0367	0.295	0.191	0.455

Sequence	binding signal (PU.1 (IVT)) [z-score]	binding signal [1] [z-score]	binding signal [2] [z-score]	binding signal [3] [z-score]
ATTCTCCAGCCTCAGCCTCC	-0.718	-0.191	-0.132	-0.51
TGTATAATACAAAGCAAAAG	-0.167	-0.337	-0.86	-2.07
TATCTAAATGGATCTGGTTT	-0.0351	-0.229	0.0508	-0.367
CCTTCCCAGCCTGTGCCGGA	-0.713	0.0362	0.066	-0.358
ACCAACCCCCAGTCTCCCGA	-0.739	0.162	-0.862	2.73
CCACAAAGATCTTGTGGGTA	0.145	-0.0349	-0.818	0.0906
ATTGTATTTCATCACAGTCT	-0.317	-0.654	-0.364	-0.683
CATGAATGAGATTTGGAACT	-0.11	0.31	-0.47	-0.673
TTAATGAGTTCAGAGTTTCA	-0.429	-0.291	-0.135	1.98
AAACAGAGACTTCACAAAAT	0.0327	0.143	-0.253	0.461
TTATTGTTTGAGATTTTATC	0.0357	-0.505	-0.725	-0.27
GGGCCATGGATGGGCAAAAG	-0.378	-0.237	-0.976	-0.198
TTACTCTGTTACAAAATTGC	-0.241	-0.256	0.155	-0.587
ATTCGGTAGCGCAGGCTCCG	-0.464	-0.405	0.15	0.0052
GCCACGTGGTGTATTATTCC	-0.143	-0.519	0.116	0.676
ACGTATGGAAAAACACAGAT	-0.0282	-0.216	-0.285	0.836
AGGAAGGAAGCCTGCAGACA	0.439	0.536	2.6	-1.16
ATTTATGCAACTGATCACAG	0.0576	0.00426	-0.0813	-1.14
TTGGTAAAAGAGCAGCACGA	-0.028	-0.488	-0.263	-0.696
CCAGTAGTAGTTAGGGCAGA	-0.0293	-0.158	-0.543	0.946
AGTTAACTAAAACAGTACGG	-0.0403	-0.292	-0.551	-0.132
CTCAGCTGAGGAAACTCTGA	0.274	0.403	0.611	-0.7

Sequence	binding signal (PU.1 (IVT)) [z-score]	binding signal [1] [z-score]	binding signal [2] [z-score]	binding signal [3] [z-score]
ATGTGATTTCCTCCTCTAAG	1.71	1.02	1.93	-1.25
ATGAATAAATATCACTTGAT	-0.19	-0.455	-0.122	-0.933
AAGGATGCTGCGTGAAAGTG	-0.376	-0.213	0.513	1.56
AAGTGGCTTCCGCTTACTGG	3.16	3.44	3.38	0.32
CATGACATACAGAAATGGGT	-0.0127	-0.0731	-0.08	-0.0229
ATTTAGTACTCAGTGATAAA	0.121	-0.162	-0.476	-0.53
GGGGTGCCATCAAAGTATCT	0.139	-0.223	-0.314	0.901
TCCGCCCCTTCCAGGCAAGA	-0.209	-0.22	-0.338	-0.595
TTCCTGGCCGGCAAATGACT	2.26	2.67	4.34	-0.829
TTAGTAACCTGCAAGCACTT	-0.17	-0.137	-0.463	-0.877
TATTTCCATAGCTAATACAA	0.409	-0.428	0.444	0.0522
AGCTGGGCATCCTCCATGAT	-0.431	-0.186	1.45	0.566
CTGCTTTTGAGGACCTCAGG	0.13	-0.00722	-0.426	-1.37
TGCATGACTGCGTGAAAGAA	0.608	0.0034	-0.337	-0.426
GCAGGCAGGGCTGTACCAGG	-0.58	-0.332	-0.597	1.86
TGGCTCCTTGCAGAGAAACC	-0.94	-0.112	-0.126	-0.539
GCAAAATGCTACTTTAGTTG	-0.574	-0.609	-0.17	-0.283
CATAAGAATGTGAACGAGGC	0.166	-0.223	-0.42	-0.371
